Data taken from PMC3258025 (Molecular Cancer Therapeutics, 2010).

Tested on: HEK-EV cells
Experiment: MTT cytotoxicity assay in empty vector-transfected HEK293 cells
Format: cell-based, human
Details: disopyramide 150 μmol/L or cimetidine 1.5 mmol/L; P < 0.05

CN/C(=N/CCSCc1nc[nH]c1C)NC#N [cimetidine]
Effect of OCT inhibitor on picoplatin IC50 in HEK-EV cells: small effect

CC(C)N(CCC(C(N)=O)(c1ccccc1)c1ccccn1)C(C)C (centres unmarked) [disopyramide]
Effect of OCT inhibitor on picoplatin IC50 in HEK-EV cells: small effect
